# In US20260193317A1, “COMBINATION THERAPY WITH ACTRIIB RECEPTOR VARIANTS AND GLP-1 AGONISTS” (35PHARMA Inc., priority 2023, published 2026):
# T1: BMP-9 (UniProt Q9UK05 320-429)
# T1 sequence (looked up): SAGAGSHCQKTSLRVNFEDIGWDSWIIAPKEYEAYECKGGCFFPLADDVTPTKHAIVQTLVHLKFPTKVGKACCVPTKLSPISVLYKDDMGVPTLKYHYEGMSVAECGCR
# T2: recombinant human activin A (human, UniProt P08476 311-426)
# T2 sequence (looked up): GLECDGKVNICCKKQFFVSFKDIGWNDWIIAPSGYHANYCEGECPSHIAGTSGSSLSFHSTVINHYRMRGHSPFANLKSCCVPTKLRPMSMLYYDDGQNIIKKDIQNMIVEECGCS
# T3: activin B (UniProt P09529 293-407)
# T3 sequence (looked up): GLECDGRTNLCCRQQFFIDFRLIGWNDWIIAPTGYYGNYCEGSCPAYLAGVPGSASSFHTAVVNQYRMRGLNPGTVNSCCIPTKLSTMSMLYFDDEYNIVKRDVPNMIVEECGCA
# T4: BMP-10 (UniProt O95393 317-424)
# T4 sequence (looked up): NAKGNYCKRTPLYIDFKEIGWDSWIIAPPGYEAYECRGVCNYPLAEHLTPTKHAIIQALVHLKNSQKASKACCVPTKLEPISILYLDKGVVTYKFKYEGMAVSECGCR
# T5: BMP-10 (Homo sapiens, UniProt O95393)
# T5 sequence (O95393 317-424): T4 sequence (looked up)
# B1: P1229 (Fc fusion)
# chain: ETRECIYYNANWELERTNQSGLERCEGEQDKRWHCYASWRNSSGTIELVKKGCWLDDFNCYDRQECVATEENPQVYFCCCEGNFCNERFTHLPEAGGPEVTYEPPPTGGGGSGGGGSGG[human IgG1 Fc and a few adjoining residues not spelt out]
# B2: P1373 (Fc fusion)
# chain: ETRECIYYNANWELERTNQSGLERCEGEQDKRWHCYASWRNSSGTIELVKKGCWLDDFNCYDRQECVATEENPQVYFCCCEGNFCNERFTHLPEAGGPEVTYEPPPTGGGGSGGGGSGGGGSGG[human IgG1 Fc and a few adjoining residues not spelt out]
# B3: P750: hActRIIB L33R, 14 aa linker, IgG1-DL Fc; SEQ ID 175 (protein)
# chain: ETRECIYYNANWELERTNQSGLERCEGEQDKRRHCYASWRNSSGTIELVKKGCWLDDFNCYDRQECVATEENPQVYFCCCEGNFCNERFTHLPEAGGPEVTYEPPPTGGGGSGGGGSGG[human IgG1 Fc and a few adjoining residues not spelt out]
# Experiments:
# BMP-9 [1] = molecular target: T1, BMP-9; assay: cell-based or functional assay
# [2] = molecular target: T2, recombinant human activin A; assay: cell-based or functional assay
# activin B = molecular target: T3, activin B; assay: cell-based or functional assay
# GDF-8 = GDF-8 (UniProt O14793 267-375); assay: cell-based or functional assay
# GDF-11 = GDF-11 (UniProt O95390 299-407); assay: cell-based or functional assay
# Chain of GDF-11 (O95390 299-407 limits assumed): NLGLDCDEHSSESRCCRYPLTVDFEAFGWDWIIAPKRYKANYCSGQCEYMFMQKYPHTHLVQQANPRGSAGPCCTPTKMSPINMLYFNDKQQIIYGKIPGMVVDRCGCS
# BMP-9 [3] = molecular target: T1, BMP-9; assay: cell-based or functional assay; remark: listed apart in the source
# BMP-10 [4] = molecular target: T4, BMP-10; assay: cell-based or functional assay
# BMP-10 [5] = molecular target: T5, BMP-10; assay: BMP-reporter HepG2 cell-based assay: BMP-10 neutralization
# [6] = SEC-HPLC monomer and HMW content of purified fusion proteins; format: physicochemical; conditions: after Protein A purification
# [7] = Body weight gain with twice weekly injections in wild-type male mice; format: in vivo; conditions: P750 at 1 mg/kg s.c. twice weekly, 11 days
# Experimental: Additional in vivo evaluation of exemplary agents, P750 and P1229, was conducted and compared to P75. P750 (1, 10, and 25 mg/kg), P1229 (5 and 25 mg/kg), and P75 (25 mg/kg) were injected subcutaneously twice weekly in wild-type male mice (n=6/group), over the course of 11 days (P750; FIG. 7A) or 7 days (P1229 and P75; FIG. 7B). P750 (10 and 25 mg/kg), P1229 (5 and 25 mg/kg), and P75 (25 mg/kg) induced a significant body weight gain as early as Day 3 (between 5 and 10%), up until the end of the study (FIGS. 7A-7B).
Molecule,fold loss of BMP-9 potency relative to P75; BMP-reporter HepG2 cells (BMP-9 [1]),Activin A IC50; TGFβ-reporter HEK293 cells [2],Activin B IC50; TGFβ-reporter HEK293 cells (activin B),GDF-8 IC50; TGFβ-reporter HEK293 cells (GDF-8),GDF-11 IC50; TGFβ-reporter HEK293 cells (GDF-11),BMP-9 IC50; BMP-reporter HepG2 cells (BMP-9 [3]),BMP-10 IC50; BMP-reporter HepG2 cells (BMP-10 [4]),inhibition potency on BMP-10 relative to P75 (BMP-10 [5]),high molecular weight (HMW) content (SEC-HPLC) [6],monomer content (SEC-HPLC) [6],body weight [7]
B1,> 100 fold,0.7 nM,1.8 nM,0.33 nM,0.39 nM,> 1000 nM,> 100 nM,–,–,–,–
B2,> 100 fold,0.53 nM,2.9 nM,0.4 nM,0.46 nM,> 1000 nM,> 100 nM,–,–,–,–
B3,–,–,–,–,–,–,–,unchanged or modestly reduced,4%,96%,"modest increase in body weight, which only reached statistical significance on Day 7"
